Data from publication PMC4242493.
The other results are listed elsewhere or left out. The list includes weakly bound sequences.

These sequences were tested against MaxL homodimer (UniProt P61244) (assay: universal protein-binding microarray (PBM)). Conditions: PBS-based mixture, 10 nM His-tagged protein dimer, 2% milk, 200 ng/uL BSA, 50 ng/uL salmon testes DNA, 0.02% TX-100; detection with Alexa 488 anti-His …; high values mean tight binding; most listed sequences are background and not binding sites; double strand, one strand shown.
UniProt P61244, sequence (P61244 whole entry): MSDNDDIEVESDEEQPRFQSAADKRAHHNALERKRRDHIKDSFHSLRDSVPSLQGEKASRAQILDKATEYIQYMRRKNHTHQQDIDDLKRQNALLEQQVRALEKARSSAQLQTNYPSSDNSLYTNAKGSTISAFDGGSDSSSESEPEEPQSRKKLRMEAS

Row | Sequence | binding signal (normalized occupancy)
1 | CGATTGAC | 0.0757
2 | AAAACGGA | 0.0732
3 | GTGCGAGA | 0.0815
4 | CGAACCAA | 0.0713
5 | CAAAGGCG | 0.0772
6 | ATTTACCG | 0.0738
7 | AAAAACAG | 0.0754
8 | TACGAATA | 0.0783
9 | TGGCCAAA | 0.0757
10 | GAGAAATC | 0.0722
11 | CGAACCGC | 0.0674
12 | CTTAGTGC | 0.0762
13 | AATAATTG | 0.0775
14 | ACACACGG | 0.083
15 | AAGTACAC | 0.0837
16 | AATCGGCC | 0.0674
17 | CCACACGG | 0.0835
18 | GGACCGCA | 0.0705
19 | TACTGGAA | 0.0727
20 | GAGCATGC | 0.113
21 | CAAACCAC | 0.0792
22 | AAGATAGT | 0.0795

Row | Sequence | binding signal (normalized occupancy)
23 | TGTGGGAA | 0.0844
24 | ATCAGTAG | 0.0762
25 | CCGTGAAC | 0.0745
26 | GCACATCA | 0.0851
27 | CGCCCTAC | 0.0709
28 | CTAGTCTA | 0.0707
29 | ATACGACC | 0.0781
30 | CCAGTCCA | 0.0734
31 | AATACGAA | 0.075
32 | AGCCGAGG | 0.0678
33 | CAGGAAGA | 0.0723
34 | AGATTGCA | 0.0748
35 | CCTTGACG | 0.0731
36 | AACGCATT | 0.0767
37 | CACTGCGA | 0.0739
38 | CAGCCGGC | 0.0623
39 | ATCTCGAG | 0.0767
40 | GAGGGGCA | 0.0793
41 | CCTCGCGC | 0.0791
42 | AGAGGGTC | 0.0758
43 | CTCACTAA | 0.0787
44 | CTGAAGTA | 0.0676

Row | Sequence | binding signal (normalized occupancy)
45 | AGATAAAC | 0.0777
46 | ACCGCTTG | 0.0715
47 | GTATTGCA | 0.0814
48 | CTCCACAG | 0.0716
49 | AGGAGCGG | 0.0698
50 | GAGACTTA | 0.0723
51 | ACAAGCCC | 0.0761
52 | AGCTACTA | 0.0716
53 | CCATAGTA | 0.0805
54 | GGGGCCAC | 0.0726
55 | CTATGTAA | 0.0767
56 | CTTTAGAA | 0.0731
57 | CAAACGAC | 0.0706
58 | AACCCAAG | 0.074
59 | GACATGAC | 0.0811
60 | AACCGAGT | 0.07
61 | AAAGAATT | 0.0678
62 | CGCCACTC | 0.0736
63 | AGAGGTTG | 0.0687
64 | GGGGTCCA | 0.076
65 | AACCCGGC | 0.0653
66 | CTCGACTA | 0.0717

Row | Sequence | binding signal (normalized occupancy)
67 | ATTTACAA | 0.0755
68 | ATGTTGCG | 0.0775
69 | AGACGACT | 0.0701
70 | ACATGTGC | 0.197
71 | AAATGCGG | 0.0791
72 | GGAATCAA | 0.0733
73 | ACAGGTAT | 0.0836
74 | CACACTGG | 0.0819
75 | AAGGCGCG | 0.0757
76 | CCGCGACC | 0.0691
77 | TACCCTAA | 0.0753
78 | ACTGGACT | 0.0702
79 | CGACTCAG | 0.0707
80 | GCAGCACC | 0.0745
81 | CAGTGATG | 0.0746
82 | ATATTATC | 0.0863
83 | GAGTTTAC | 0.0732
84 | AGGGCGGG | 0.0768
85 | ATGATACC | 0.0795
86 | TACCATAA | 0.0783
